{"source": "the supplement of paper PMC4604168 (melanoma cell lines)", "note": "The other results are listed elsewhere or left out. Many values rest on one well or one pass, so single values are uncertain.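 Note: cell number obtained by counting DAPI-stained nuclei in high-throughput microscope images with image analysis software, screen run in 1,536-well plates.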", "data": [{"tested_on": "COLO800", "assay": "cell count relative to DMSO control; melanoma cells; higher = more viable cells", "settings": "library dose: low library concentration; 72 h", "units": {"cell count": "%"}, "values": [{"smiles": "C=C(c1ccc(C(=O)O)cc1)c1cc2c(cc1C)C(C)(C)CCC2(C)C", "note": "[Bexarotene] + Cn1cc(/C=C2\\C(=O)Nc3cccnc32)c2ccccc21 [GW441756] (first compound 2 µM, partner dose 0.4 µM)", "cell count": 98.2}, {"smiles": "NC1(c2ccc(-c3nc4ccn5c(=O)[nH]nc5c4cc3-c3ccccc3)cc2)CCC1", "note": "+ CC(C)CCN1c2nc(Nc3cc(F)c(O)c(F)c3)ncc2N(C)C(=O)C1C [BID1870] (first compound 0.4 µM, partner dose 0.2 µM)", "cell count": 83.7}, {"smiles": "CS(=O)(=O)c1ccc(C(=O)Nc2ccc(Cl)c(-c3ccccn3)c2)c(Cl)c1", "note": "[vismodegib] + N#Cc1c(O)c2c(-c3ccc(-c4ccccc4O)cc3)csc2[nH]c1=O [A769662] (first compound 1 µM, partner dose 2 µM)", "cell count": 117}, {"smiles": "CN(c1ncccc1CNc1nc(Nc2ccc3c(c2)CC(=O)N3)ncc1C(F)(F)F)S(C)(=O)=O", "note": "+ COC(=O)c1sccc1S(=O)(=O)Nc1ccc(Nc2ccccc2)cc1OC [GSK0660] (first compound 0.08 µM, partner dose 1 µM)", "cell count": 147}, {"smiles": "CCCS(=O)(=O)Nc1ccc(F)c(C(=O)c2c[nH]c3ncc(Cl)cc23)c1F", "note": "+ COC(=O)c1sccc1S(=O)(=O)Nc1ccc(Nc2ccccc2)cc1OC [GSK0660] (first compound 0.08 µM, partner dose 1 µM)", "cell count": 74.3}, {"smiles": "NC1(c2ccc(-c3nc4ccn5c(=O)[nH]nc5c4cc3-c3ccccc3)cc2)CCC1", "note": "+ COc1cc(N2CCC(N3CCN(C)CC3)CC2)ccc1Nc1ncc(Cl)c(Nc2ccccc2S(=O)(=O)C(C)C)n1 [NVP-TAE684] (first compound 0.4 µM, partner dose 0.08 µM)", "cell count": 75.6}, {"smiles": "CS(=O)(=O)c1ccc(C(=O)Nc2ccc(Cl)c(-c3ccccn3)c2)c(Cl)c1", "note": "[vismodegib] + CCN(CC)CCCCNc1ncc2cc(-c3cc(OC)cc(OC)c3)c(NC(=O)NC(C)(C)C)nc2n1 [PD173074] (first compound 1 µM, partner dose 0.1 µM)", "cell count": 161}, {"smiles": "CCCS(=O)(=O)Nc1ccc(F)c(C(=O)c2c[nH]c3ncc(Cl)cc23)c1F", "note": "+ N#Cc1c(O)c2c(-c3ccc(-c4ccccc4O)cc3)csc2[nH]c1=O [A769662] (first compound 0.08 µM, partner dose 2 µM)", "cell count": 141}, {"smiles": "CCCS(=O)(=O)Nc1ccc(F)c(C(=O)c2c[nH]c3ncc(Cl)cc23)c1F", "note": "+ COc1ccc2c(c1)CCC1C2CCC2(C)C(NCCCCCCN3C(=O)C=CC3=O)CCC12 [U73122] (first compound 0.08 µM, partner dose 0.4 µM)", "cell count": 77.4}, {"smiles": "CN(c1ncccc1CNc1nc(Nc2ccc3c(c2)CC(=O)N3)ncc1C(F)(F)F)S(C)(=O)=O", "note": "+ O=S(=O)(c1ccccc1)N(CC(F)(F)F)c1ccc(C(O)(C(F)(F)F)C(F)(F)F)cc1 [T0901317] (first compound 0.08 µM, partner dose 1.4 µM)", "cell count": 136}, {"smiles": "CCCS(=O)(=O)Nc1ccc(F)c(C(=O)c2c[nH]c3ncc(Cl)cc23)c1F", "note": "+ O=C1NC(=O)/C(=C/c2ccc(-c3ccc(F)cc3O)o2)S1 [AS252424] (first compound 0.08 µM, partner dose 1 µM)", "cell count": 120}, {"smiles": "NC1(c2ccc(-c3nc4ccn5c(=O)[nH]nc5c4cc3-c3ccccc3)cc2)CCC1", "note": "+ COc1cc2ncnc(Nc3ccc(Oc4ccccc4)cc3)c2cc1OC [SrcI1] (first compound 0.4 µM, partner dose 2 µM)", "cell count": 91.1}, {"smiles": "C=C(c1ccc(C(=O)O)cc1)c1cc2c(cc1C)C(C)(C)CCC2(C)C", "note": "[Bexarotene] + COc1cc2ncnc(Nc3ccc(Oc4ccccc4)cc3)c2cc1OC [SrcI1] (first compound 2 µM, partner dose 2 µM)", "cell count": 210}, {"smiles": "C=C(c1ccc(C(=O)O)cc1)c1cc2c(cc1C)C(C)(C)CCC2(C)C", "note": "[Bexarotene] + O=S(=O)(c1ccccc1)N(CC(F)(F)F)c1ccc(C(O)(C(F)(F)F)C(F)(F)F)cc1 [T0901317] (first compound 2 µM, partner dose 1.4 µM)", "cell count": 119}, {"smiles": "C=C(c1ccc(C(=O)O)cc1)c1cc2c(cc1C)C(C)(C)CCC2(C)C", "note": "[Bexarotene] + Oc1cc(-c2nc(-c3ccccc3)[nH]c2-c2ccncc2)ccc1Cl [L779450] (first compound 2 µM, partner dose 0.2 µM)", "cell count": 181}, {"smiles": "CN(c1ncccc1CNc1nc(Nc2ccc3c(c2)CC(=O)N3)ncc1C(F)(F)F)S(C)(=O)=O", "note": "+ COc1ccc2c(c1)CCC1C2CCC2(C)C(NCCCCCCN3C(=O)C=CC3=O)CCC12 [U73122] (first compound 0.08 µM, partner dose 0.4 µM)", "cell count": 133}, {"smiles": "CCCS(=O)(=O)Nc1ccc(F)c(C(=O)c2c[nH]c3ncc(Cl)cc23)c1F", "note": "+ CCCCCCCCCCCC1=C(O)C(=O)C=C(O)C1=O [Embelin] (first compound 0.08 µM, partner dose 1.2 µM)", "cell count": 108}, {"smiles": "CN(c1ncccc1CNc1nc(Nc2ccc3c(c2)CC(=O)N3)ncc1C(F)(F)F)S(C)(=O)=O", "note": "+ Oc1nc(-c2ccc(C(F)(F)F)cc2)nc2c1CSCC2 [XAV939] (first compound 0.08 µM, partner dose 2 µM)", "cell count": 100}, {"smiles": "NC1(c2ccc(-c3nc4ccn5c(=O)[nH]nc5c4cc3-c3ccccc3)cc2)CCC1", "note": "+ COc1ccc2c(c1)CCC1C2CCC2(C)C(NCCCCCCN3C(=O)C=CC3=O)CCC12 [U73122] (first compound 0.4 µM, partner dose 0.4 µM)", "cell count": 70.1}, {"smiles": "C=C(c1ccc(C(=O)O)cc1)c1cc2c(cc1C)C(C)(C)CCC2(C)C", "note": "[Bexarotene] + O=C1NC(=O)/C(=C/c2ccc(-c3ccc(F)cc3O)o2)S1 [AS252424] (first compound 2 µM, partner dose 1 µM)", "cell count": 90.7}, {"smiles": "CN(c1ncccc1CNc1nc(Nc2ccc3c(c2)CC(=O)N3)ncc1C(F)(F)F)S(C)(=O)=O", "note": "+ COc1cc(N2CCC(N3CCN(C)CC3)CC2)ccc1Nc1ncc(Cl)c(Nc2ccccc2S(=O)(=O)C(C)C)n1 [NVP-TAE684] (first compound 0.08 µM, partner dose 0.08 µM)", "cell count": 78.9}, {"smiles": "CN(c1ncccc1CNc1nc(Nc2ccc3c(c2)CC(=O)N3)ncc1C(F)(F)F)S(C)(=O)=O", "note": "+ O=c1cc(-c2cccc3c2Sc2ccccc2S3)oc(N2CCOCC2)c1 [KU55933] (first compound 0.08 µM, partner dose 1 µM)", "cell count": 111}, {"smiles": "CN(c1ncccc1CNc1nc(Nc2ccc3c(c2)CC(=O)N3)ncc1C(F)(F)F)S(C)(=O)=O", "note": "+ N#Cc1c(O)c2c(-c3ccc(-c4ccccc4O)cc3)csc2[nH]c1=O [A769662] (first compound 0.08 µM, partner dose 2 µM)", "cell count": 103}, {"smiles": "CCCS(=O)(=O)Nc1ccc(F)c(C(=O)c2c[nH]c3ncc(Cl)cc23)c1F", "note": "+ Oc1cc(-c2nc(-c3ccccc3)[nH]c2-c2ccncc2)ccc1Cl [L779450] (first compound 0.08 µM, partner dose 0.2 µM)", "cell count": 103}, {"smiles": "NC1(c2ccc(-c3nc4ccn5c(=O)[nH]nc5c4cc3-c3ccccc3)cc2)CCC1", "note": "+ O=C(O)C(=O)Nc1sc2c(c1C(=O)O)CCNC2 [TCS401] (first compound 0.4 µM, partner dose 1.66667 µM)", "cell count": 85.8}, {"smiles": "CN(c1ncccc1CNc1nc(Nc2ccc3c(c2)CC(=O)N3)ncc1C(F)(F)F)S(C)(=O)=O", "note": "+ Cn1cc(/C=C2\\C(=O)Nc3cccnc32)c2ccccc21 [GW441756] (first compound 0.08 µM, partner dose 0.4 µM)", "cell count": 88.9}, {"smiles": "CS(=O)(=O)c1ccc(C(=O)Nc2ccc(Cl)c(-c3ccccn3)c2)c(Cl)c1", "note": "[vismodegib] + COc1cc2ncnc(Nc3ccc(Oc4ccccc4)cc3)c2cc1OC [SrcI1] (first compound 1 µM, partner dose 2 µM)", "cell count": 121}, {"smiles": "NC1(c2ccc(-c3nc4ccn5c(=O)[nH]nc5c4cc3-c3ccccc3)cc2)CCC1", "note": "+ COc1ccc(-c2ccc3c(N4CCOCC4)nc(N4C[C@@H](C)O[C@@H](C)C4)nc3n2)cc1CO [KU0063794] (first compound 0.4 µM, partner dose 0.02 µM)", "cell count": 82.9}, {"smiles": "CN(c1ncccc1CNc1nc(Nc2ccc3c(c2)CC(=O)N3)ncc1C(F)(F)F)S(C)(=O)=O", "note": "+ O=C1NC(=O)/C(=C/c2ccc(-c3ccc(F)cc3O)o2)S1 [AS252424] (first compound 0.08 µM, partner dose 1 µM)", "cell count": 99.3}, {"smiles": "CS(=O)(=O)c1ccc(C(=O)Nc2ccc(Cl)c(-c3ccccn3)c2)c(Cl)c1", "note": "[vismodegib] + COc1ccc(COc2ccc(Cc3cnc(N)nc3N)cc2OC)cc1 [GW2580] (first compound 1 µM, partner dose 1 µM)", "cell count": 101}, {"smiles": "CS(=O)(=O)c1ccc(C(=O)Nc2ccc(Cl)c(-c3ccccn3)c2)c(Cl)c1", "note": "[vismodegib] + COc1ccc2c(c1)CCC1C2CCC2(C)C(NCCCCCCN3C(=O)C=CC3=O)CCC12 [U73122] (first compound 1 µM, partner dose 0.4 µM)", "cell count": 102}, {"smiles": "NC1(c2ccc(-c3nc4ccn5c(=O)[nH]nc5c4cc3-c3ccccc3)cc2)CCC1", "note": "+ Cn1cc(/C=C2\\C(=O)Nc3cccnc32)c2ccccc21 [GW441756] (first compound 0.4 µM, partner dose 0.4 µM)", "cell count": 122}, {"smiles": "C=C(c1ccc(C(=O)O)cc1)c1cc2c(cc1C)C(C)(C)CCC2(C)C", "note": "[Bexarotene] + O=C(Nc1ccccc1)c1cc([N+](=O)[O-])ccc1Cl [GW9662] (first compound 2 µM, partner dose 2 µM)", "cell count": 135}]}]}
